# Hit rate of the full screen: of about 420,000 compounds, about 50,000 (12%) were called active. The shares of active, inactive and inconclusive entries below differ from those in the screen. Calls follow the shape of the dose curve; as a rule, active = well fitted inhibition curve with a large enough effect; inconclusive = small, poorly fitted or top-dose-only effect; inactive = flat fitted curve, though single readings scatter. Potencies of inconclusive entries are left out as doubtful fits.
# Assay: qHTS for Inhibitors of human tyrosyl-DNA phosphodiesterase 1 (TDP1): qHTS in cells in presence of CPT; also: nearly all actives have a fitted effect of over 55% in size
# Conditions: chicken DT40 Tdp1-/-;hTDP1 cells + 20 nM CPT, ATP luminescence, 48 h; activity change, negative = growth inhibition: at 46.2 µM (top of the series) unless noted
# Procedure, shortened: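 Cell growth measured by CellTiter-Glo luminescence after a minimum 48 h, 37 C compound exposure with 20 nM CPT in Tdp1-knockout DT40 cells stably expressing hTDP1, seeded 400/well; qHTS titration format.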
# % is scaled to controls: 0 for no effect and ±100 for the full control effect; potency is read from the fitted curve at half-maximal effect; tags tell the direction and shape of the fitted curve.
SMILES,Potency,"activity change, negative = growth inhibition"
COc1ccc(C(=O)Nc2ccc3nc(SCC(=O)N(C)c4ccccc4)sc3c2)cc1,"inconclusive [inhibitor, single point]",
CC(C)c1ccccc1NC(=O)CNCCc1ccc(C(F)(F)F)cc1,"inconclusive [inhibitor, single point]",
COCCn1c(=S)[nH]c2cc(C(=O)NC3CCCC(C)C3C)ccc2c1=O (centres undefined),inactive,
CCCCN(C=O)c1c(CC)nc2ccc(C(=O)Nc3cc(-c4ccccc4)ccc3OC)cn12,"inconclusive [inhibitor, single point]",
CC(C)N(C(=O)Cn1cc(S(=O)(=O)Cc2ccc(Br)cc2)c2ccccc21)C(C)C,active: 23.1 µM,
CCN1CCN(CC(O)COc2ccc3c(C)cc(=O)oc3c2)CC1 (centres undefined),inactive,
COC(=O)c1ccc(N(CC(=O)NC2CCCCC2)C(=O)CNC(=O)c2ccco2)cc1,inactive,
C[C@H]1CN([C@@H](C)CO)C(=O)c2c(c3ccccc3n2C)-c2ccccc2CO[C@H]1CN(C)C(=O)[C@@H]1CCCN1C,inactive,
Cc1nn(C)cc1CNC(=O)c1cc2n(n1)C(C(F)(F)F)CC(c1cccs1)N2 (centres undefined),"inconclusive [inhibitor, partial curve]",
COC(=O)c1ccc2nc(-c3ccc(Cl)cc3)c(Cc3ccc(OC)cc3C)n2c1,"inconclusive [inhibitor, single point]",
Clc1cccc(Cc2c(C3CCCCC3)nc3ccc(Cl)cn23)c1,"inconclusive [inhibitor, single point]",
O=C(Nc1ccccc1)c1cc2n(n1)C(C(F)(F)F)CC(C1CC1)N2 (centres undefined),inactive,
Cc1ccc(S(=O)(=O)N2CCc3c2cc([N+](=O)[O-])cc3[N+](=O)[O-])cc1,"inconclusive [inhibitor, single point]",
COC(=O)c1sc(N2C(=O)c3oc4ccccc4c(=O)c3C2c2cccs2)nc1C (centres undefined),active: 18.4 µM,
CS(=O)(=O)N1CCC(C(=O)Nc2ccc3c(c2)OCCO3)CC1,inactive,
CC1CCN(S(=O)(=O)c2ccc3c(c2)N(CC(=O)NCCCN2CCCCC2)C(=O)CS3)CC1,inactive,
COc1ccc(NC2=C(c3ccccc3)C(=O)c3ccccc32)cc1Cl,"inconclusive [inhibitor, partial curve]",
Cc1ccc(CNC(=O)c2cc(-c3ccc(C)cc3)nc3n[nH]c(-c4cccc([N+](=O)[O-])c4)c23)cc1,active: 11.6 µM,
c1ccc(-n2cnc3ccccc32)cc1,,inconclusive: -32.3% [inhibitor]
COc1cc(C=NNc2ccccc2)ccc1OC(=O)c1ccccc1,"inconclusive [inhibitor, single point]",
CCC(C(=O)NCCCN1CCCCCC1)n1nc(C)c2sc3ccccc3c2c1=O (centres undefined),inactive,
Cc1ccccc1NC(=O)Oc1cccc(OC(=O)c2ccccc2)c1,inactive,
FC(F)(F)c1cc(-c2ccccc2)nc(-n2cc(Cl)cn2)n1,"inconclusive [inhibitor, single point]",
CC1CCC2(CC1)NC(=O)N(CC(=O)NC(=O)Nc1ccc3c(c1)OCCO3)C2=O (centres undefined),inactive,
Cc1csc2c(N3CCN(C(=O)c4ccc(C(C)(C)C)cc4)CC3)ncnc12,"inconclusive [inhibitor, partial curve, poor fit]",

SMILES,Potency,"activity change, negative = growth inhibition"
COc1ccc(N(C)C(=O)c2cn(CC(C)C)c(=O)c3cc(OC)c(OC)cc23)c(OC)c1,"inconclusive [inhibitor, single point]",
COc1ccc([N+](=O)[O-])cc1NC(=O)CC(c1ccccc1)c1ccccc1,"inconclusive [inhibitor, single point]",
COc1ccc(OC)c(N2C(=O)CC(Cc3cc(C)cc(C)c3)C2=O)c1 (centres undefined),,inconclusive: -33.4% [inhibitor]
Nc1ccc(-c2n[nH]c(=O)c3ccccc23)cc1N,active: 0.461 µM,
Cc1nn(-c2cccc(Cl)c2)c(Cl)c1/C=N/NC(=O)c1cccnc1,"inconclusive [inhibitor, single point]",
Cc1cc(N/N=C/c2cccc(F)c2)nc(NCc2ccccc2)n1,"inconclusive [inhibitor, partial curve]",
CNC(=S)N(CCc1c(C)[nH]c2ccc(C)cc12)Cc1ccc(OC)c(OC)c1,"inconclusive [inhibitor, single point]",
CCCCCCn1cc(CN(C)C2CN(Cc3cn(CCCCCC)nn3)S(=O)(=O)C2)nn1 (centres undefined),"inconclusive [inhibitor, single point]",
COc1ccc(CN(C)CC(=O)Nc2ccccc2C(F)(F)F)c(OC)c1,inactive,
CCCCOC(=O)C1=C(C)NC(=O)NC1c1ccccc1 (centres undefined),inactive,
CCOc1ccc(CCNC(=O)CCCn2nc(C)c3c(C)n(-c4ccccc4)nc3c2=O)cc1,"inconclusive [inhibitor, single point]",
c1ccc(OCCn2cnc3ccccc32)cc1,,inconclusive: -33.5% [inhibitor]
O=C(COC(=O)C1CCN(C(=O)c2ccc(Cl)cc2)CC1)Nc1ccccc1F,inactive,
O=C(O)c1ccccc1NC(c1ccccc1)c1ccc(Cl)cc1 (centres undefined),inactive,
O=C(/C=C/c1ccc(Cl)c([N+](=O)[O-])c1)c1ccc(O)cc1,active: 4.11 µM,
Cc1onc(-c2ccccc2Cl)c1C(=O)OCc1cnc(Cl)s1,"inconclusive [inhibitor, single point]",
CS(=O)c1ccc(/C=C2\C=Cc3ccccc32)cc1 (centres undefined),"inconclusive [inhibitor, single point]",
CSc1nnc(-c2cccn(Cc3cccc(Cl)c3)c2=O)o1,inactive,
CCOC(=O)[C@H]1[C@H]2COc3ccc(Cl)cc3[C@@H]2N2C(=O)c3ccc(Cl)cc3NC(=O)[C@@]12C,"inconclusive [inhibitor, single point]",
CCCCCCCCN1C(=O)[C@H](CC(=O)NCCCCc2ccccc2)C[C@@]2(C(=O)OCC)CCCC=C12,"inconclusive [inhibitor, single point]",
CCOc1ccc(S(=O)(=O)NCCc2c(C)[nH]c3c(Cl)cccc23)cc1C,active: 23.1 µM,
Nc1ncnc(Sc2ccc(Cl)cc2)c1[N+](=O)[O-],active: 4.61 µM,
C/C(=N\N1CCN(C2c3ccccc3-c3ccccc32)CC1)c1ccncc1,active: 16.4 µM,
O=C(N/N=C/c1ccc(Sc2ccccn2)o1)c1cc2ccccc2cc1O,inactive,
CCOc1ccc2nc(N(CCN(C)C)C(=O)c3cc4ccccc4cc3OC)sc2c1,"inconclusive [inhibitor, single point]",

SMILES,Potency,"activity change, negative = growth inhibition"
CCc1nccn1CCC(=O)N1CCCC(Nc2ccc(C(C)C)cc2)C1 (centres undefined),"inconclusive [inhibitor, single point]",
CCCn1c(=N)c(C(=O)NCC2CCCO2)cc2c(=O)n3cccc(C)c3nc21 (centres undefined),,inconclusive: -34.7% [inhibitor]
Cc1ccc(OCc2cc(C(=O)N(C)Cc3cnn(C)c3)no2)cc1C,inactive,
Cc1ccccc1Nc1nc(N)nc(COC(=O)c2cccc(S(=O)(=O)NCc3ccccc3)c2)n1,"inconclusive [inhibitor, single point]",
C=CCn1c(COc2cccc3cccnc23)nnc1SCC(=O)OC,inactive,
O[C@H]1C[C@H](c2ccc(Cl)cc2)N(CC2CCCCC2)C[C@@H]1n1cc(C2CC2)nn1,active: 5.8 µM,
CC(=O)Nc1cccc(OCC(=O)NS(=O)(=O)c2ccc(C)cc2)c1,inactive,
COC(=O)c1c(C)oc(C)c1S(=O)(=O)N(Cc1ccccc1)C(C)C,active: 13 µM,
Cc1nc(C/C(=N\Nc2ccccc2)c2ccc(O)cc2O)cs1,"inconclusive [inhibitor, single point]",
COc1cccc(C(=O)NCCCc2ccccc2)c1OC,inactive,
C#CCNC(=O)C1CCN(c2ccc(S(=O)(=O)N3CCOCC3)cc2Cl)CC1,inactive,
CCOc1ccc(NS(=O)(=O)c2ccc3[nH]c4c(c3c2)CCCCC4)cc1,active: 23.1 µM,
CN1CC(COCc2ccccc2)Oc2ccccc2S1(=O)=O (centres undefined),"inconclusive [inhibitor, single point]",
Cc1cccc(-n2ncc3c2CCCC3NC(=O)C2=CC(=O)CC(C)(C)O2)c1C (centres undefined),active: 4.61 µM,
O=S(=O)(NCc1nc2cccnc2n1Cc1ccccc1Cl)c1ccc2c(c1)CCCC2,"inconclusive [inhibitor, single point]",
CC(C)CCN1C(=O)c2ccc(C(=O)Nc3cccc(S(N)(=O)=O)c3)cc2C1=O,inactive,
Cc1cccc(-c2nc3c4ccccc4nc(NCCc4ccccc4)n3n2)c1,"inconclusive [inhibitor, single point]",
Nc1ccn([C@@H]2O[C@H](CO)[C@@H](O)C2(F)F)c(=O)n1,active: 0.0094 µM,
CCOC(=O)c1ccc(NC(=O)c2ccccc2N(C)S(=O)(=O)c2ccccc2)cc1,active: 18.4 µM,
Cn1c(CO)cnc1SCc1ccc(Cl)cc1,inactive,
Cc1cc(NCc2ccccc2)nc(-c2ccccc2O)n1,"inconclusive [inhibitor, single point]",
COc1cccc(NC(=O)CN(CCc2ccccc2)S(=O)(=O)c2ccc(Cl)cc2)c1,inactive,
Brc1cc(Br)c(Oc2cc(Br)c(Br)cc2Br)cc1Br,inactive,
COc1cccc(CNc2ccc3[nH]c(=O)[nH]c3c2)c1OCc1ccccc1,"inconclusive [inhibitor, partial curve, poor fit]",
